This is one part of the list. Single values are uncertain, as repeats are few or missing.
How the values were obtained:
Test in all cases: cell count relative to DMSO control; melanoma cells; higher = more viable cells
Conditions in all cases: library dose: standard library concentration; 72 h
G361 = system: G361
IPC-298 = system: IPC-298
IST-MEL1 = system: IST-MEL1
LB2518-MEL = system: LB2518-MEL
LOXIMVI = system: LOXIMVI
MEL-HO = system: MEL-HO
MZ2-MEL = system: MZ2-MEL
MeWo = system: MeWo
RPMI7951 = system: RPMI7951
RVH-421 = system: RVH-421
SkMel28 = system: SkMel28
SkMel2 = system: SkMel2
SkMel30 = system: SkMel30
SkMel5 = system: SkMel5
UACC257 = system: UACC257
UACC62 = system: UACC62
WM115 = system: WM115
WM1716 = system: WM1716
WM1745 = system: WM1745
WM3526 = system: WM3526
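Further: cells treated in 1,536-well plates, then fixed and DAPI-stained, with nuclei counted from automated high-throughput microscope images.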

| SMILES | cell count (G361) | cell count (IPC-298) | cell count (IST-MEL1) | cell count (LB2518-MEL) | cell count (LOXIMVI) | cell count (MEL-HO) | cell count (MZ2-MEL) | cell count (MeWo) | cell count (RPMI7951) | cell count (RVH-421) | cell count (SkMel28) | cell count (SkMel2) | cell count (SkMel30) | cell count (SkMel5) | cell count (UACC257) | cell count (UACC62) | cell count (WM115) | cell count (WM1716) | cell count (WM1745) | cell count (WM3526) |
| --- | --- | --- | --- | --- | --- | --- | --- | --- | --- | --- | --- | --- | --- | --- | --- | --- | --- | --- | --- | --- |
| Nc1ncn([C@H]2C[C@H](O)[C@@H](CO)O2)c(=O)n1 [decitabine] + C[C@@H]1CCN(C(=O)CC#N)C[C@@H]1N(C)c1ncnc2[nH]ccc12 [CP690550] (first compound 0.5 µM, partner dose 5 µM) | 65.7% | 55.7% | 203% | 66.1% | 62.9% | 80.2% | 83.4% | 66.1% | 64.1% | 84.2% | 75.8% | 76.2% | 108% | 57.6% | 97.1% | 81% | 61.3% | 78.4% | 62% | 94.8% |
| Nc1nc(F)nc2c1ncn2[C@@H]1O[C@H](CO)[C@@H](O)[C@@H]1O [fludarabine] + Cn1cncc1[C@@](N)(c1ccc(Cl)cc1)c1ccc2c(c1)c(-c1cccc(Cl)c1)cc(=O)n2C [tipifarnib] (first compound 1 µM, partner dose 0.05 µM) | 55.3% | 60% | 53.7% | 65.2% | 68.5% | 76.6% | 97% | 74.8% | 40% | 76.6% | 3.45% | 1.23% | 17.9% | 32.6% | 34.6% | 54.5% | 57.1% | 51.8% | 69.4% | 20.9% |
| Nc1ccn([C@@H]2O[C@H](CO)[C@@H](O)C2(F)F)c(=O)n1 [gemcitabine] + NC(=O)Nc1cc(-c2cccc(F)c2)sc1C(=O)N[C@H]1CCCNC1 [AZD7762] (first compound 0.002 µM, partner dose 0.1 µM) | 12.2% | 22.9% | 25.3% | 37.9% | 24.1% | 20.7% | 58.6% | 18.7% | 12% | 55.7% | 46.2% | 83% | 89.9% | 27.9% | 107% | 55.9% | 34.5% | 21.4% | 23.1% | 45.2% |
| Nc1ccn([C@@H]2O[C@H](CO)[C@@H](O)C2(F)F)c(=O)n1 [gemcitabine] + COc1cc(Nc2ncc(F)c(Nc3ccc4c(n3)NC(=O)C(C)(C)O4)n2)cc(OC)c1OC [Tamatinib] (first compound 0.002 µM, partner dose 2 µM) | 71% | 40% | 31.4% | 83.6% | 24.1% | 64.2% | 72.9% | 43% | 36.7% | 79.6% | 93.1% | 70.8% | 89.3% | 64.4% | 88.9% | 79.7% | 80.5% | 73.4% | 41.2% | 75.4% |

From the supplement of paper PMC4604168 (melanoma cell lines)
